Results on two molecules are retold here after PubChem BioAssay (NCI).

The structures appear in SMILES notation.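 Cells were grown in 96-well plates and exposed to each compound for 48 hours at five concentrations; endpoints were interpolated linearly between bracketing concentrations, or set to the highest concentration if not reached. Here, GI50 denotes the concentration required for 50% inhibition of growth. TGI: concentration producing complete growth inhibition.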

The test concerns NCI-H322M lung. Put plainly: NCI-60 cell line screen, 48 h.

Regarding `COc1cc2nc(SCc3ccccc3)n(-c3ccc(Cl)cc3)c(=O)c2cc1OC`, the GI50 was 19.1 µM and the TGI is over 100 µM.
Regarding `COC(=O)C[C@](O)(CCC(C)C)C(=O)O[C@H]1C(OC)=C[C@@]23CCCN2CCc2cc4c(cc2[C@@H]13)OCO4`, the GI50 is over 10.6 µM and the TGI was over 28.9 µM.
